Where a chain is given by its changes, count along the chain named. No constants are given. Whether binding was seen depends on the method and setting. For some of these results: In cells and extracts the contact can be indirect. Some results given as binding are weak or reduced against the parent protein; the word gives no strength. For some of these results: Tags and fused reporters may be left off the sequences shown. Values belong to the substance of their own block, whether it stands above or below them.
Legend:
[1] = biological target: T1, MST2 (recombinant, wildtype) (human) (UniProt Q13188); assay: pull-down; MBP pulldown of Flag-STRIP1 fragments made in an in vitro cell-free system with the MST kinase; immunoblot; only the target purified
T1 sequence: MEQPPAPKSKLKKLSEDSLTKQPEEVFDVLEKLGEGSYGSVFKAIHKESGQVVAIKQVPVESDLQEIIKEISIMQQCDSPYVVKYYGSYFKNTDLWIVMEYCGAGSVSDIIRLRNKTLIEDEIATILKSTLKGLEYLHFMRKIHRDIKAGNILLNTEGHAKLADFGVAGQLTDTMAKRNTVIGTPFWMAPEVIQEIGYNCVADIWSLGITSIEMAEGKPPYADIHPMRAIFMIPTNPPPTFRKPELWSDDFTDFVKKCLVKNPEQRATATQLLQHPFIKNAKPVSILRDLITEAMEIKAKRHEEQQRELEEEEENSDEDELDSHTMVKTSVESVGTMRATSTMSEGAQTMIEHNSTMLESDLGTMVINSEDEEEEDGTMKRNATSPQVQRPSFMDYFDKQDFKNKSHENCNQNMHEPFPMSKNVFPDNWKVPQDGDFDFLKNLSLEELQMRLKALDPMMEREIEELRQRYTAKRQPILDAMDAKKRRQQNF

The chains behind the UniProt entries cited, without tags or fusion partners. Where a name states a change or a piece, a line headed by the entry shows the natural chain unless it says otherwise. A line that says so, or that is headed by a name, gives the form on record, which may keep a tag or linker. Residues count along the entry.
UniProt Q9P289: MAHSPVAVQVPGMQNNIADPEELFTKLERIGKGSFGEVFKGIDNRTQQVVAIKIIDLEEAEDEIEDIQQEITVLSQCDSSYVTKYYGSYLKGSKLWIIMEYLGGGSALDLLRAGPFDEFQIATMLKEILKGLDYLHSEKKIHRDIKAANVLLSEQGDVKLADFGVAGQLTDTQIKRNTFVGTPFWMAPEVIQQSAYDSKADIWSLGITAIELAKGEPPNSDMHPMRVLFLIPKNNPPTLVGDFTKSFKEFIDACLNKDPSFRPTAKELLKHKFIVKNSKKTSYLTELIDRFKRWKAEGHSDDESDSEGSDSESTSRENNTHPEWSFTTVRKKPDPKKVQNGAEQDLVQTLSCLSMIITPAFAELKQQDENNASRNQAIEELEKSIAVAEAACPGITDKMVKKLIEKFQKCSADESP
UniProt Q5VSL9: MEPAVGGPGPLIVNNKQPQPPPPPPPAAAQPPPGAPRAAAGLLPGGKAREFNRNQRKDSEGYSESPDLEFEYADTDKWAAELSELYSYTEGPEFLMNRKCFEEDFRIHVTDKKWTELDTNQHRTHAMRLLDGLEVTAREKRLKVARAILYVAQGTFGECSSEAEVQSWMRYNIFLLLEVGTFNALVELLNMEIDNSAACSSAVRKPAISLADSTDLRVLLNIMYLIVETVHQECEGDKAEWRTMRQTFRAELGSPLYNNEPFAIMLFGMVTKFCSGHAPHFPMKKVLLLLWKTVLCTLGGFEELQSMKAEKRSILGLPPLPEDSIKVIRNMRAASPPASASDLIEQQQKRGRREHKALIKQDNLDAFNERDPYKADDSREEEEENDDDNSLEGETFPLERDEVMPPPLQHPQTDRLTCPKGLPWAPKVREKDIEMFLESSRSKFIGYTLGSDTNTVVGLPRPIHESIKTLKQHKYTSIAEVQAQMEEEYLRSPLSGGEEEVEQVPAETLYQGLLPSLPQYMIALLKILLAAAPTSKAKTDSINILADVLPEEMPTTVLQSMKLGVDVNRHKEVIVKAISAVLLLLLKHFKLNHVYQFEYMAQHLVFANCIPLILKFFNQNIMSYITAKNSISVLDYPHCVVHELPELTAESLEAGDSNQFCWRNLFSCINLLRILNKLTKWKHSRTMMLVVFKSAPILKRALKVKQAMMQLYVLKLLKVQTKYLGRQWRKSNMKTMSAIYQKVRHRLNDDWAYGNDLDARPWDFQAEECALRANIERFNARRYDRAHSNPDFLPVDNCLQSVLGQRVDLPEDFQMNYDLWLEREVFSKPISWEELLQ
STRIP1 C-terminal tail region containing residues 721–837: residues 721-837 of Q5VSL9
HA-tagged STRIP1 Δ421–744 (Q5VSL9, form named): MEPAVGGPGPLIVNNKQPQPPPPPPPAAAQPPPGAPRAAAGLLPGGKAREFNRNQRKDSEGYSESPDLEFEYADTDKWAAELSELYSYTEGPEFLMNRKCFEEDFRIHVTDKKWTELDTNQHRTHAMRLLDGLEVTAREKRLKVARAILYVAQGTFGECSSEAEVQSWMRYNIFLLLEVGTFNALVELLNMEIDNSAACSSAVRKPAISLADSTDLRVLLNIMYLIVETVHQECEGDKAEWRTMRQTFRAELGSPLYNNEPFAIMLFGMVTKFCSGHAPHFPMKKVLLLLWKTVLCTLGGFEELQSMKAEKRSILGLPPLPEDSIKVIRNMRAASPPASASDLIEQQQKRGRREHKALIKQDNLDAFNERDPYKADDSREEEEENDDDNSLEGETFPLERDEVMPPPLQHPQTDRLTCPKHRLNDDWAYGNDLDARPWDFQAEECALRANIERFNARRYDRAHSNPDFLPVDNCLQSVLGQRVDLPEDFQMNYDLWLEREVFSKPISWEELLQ
UniProt O95747: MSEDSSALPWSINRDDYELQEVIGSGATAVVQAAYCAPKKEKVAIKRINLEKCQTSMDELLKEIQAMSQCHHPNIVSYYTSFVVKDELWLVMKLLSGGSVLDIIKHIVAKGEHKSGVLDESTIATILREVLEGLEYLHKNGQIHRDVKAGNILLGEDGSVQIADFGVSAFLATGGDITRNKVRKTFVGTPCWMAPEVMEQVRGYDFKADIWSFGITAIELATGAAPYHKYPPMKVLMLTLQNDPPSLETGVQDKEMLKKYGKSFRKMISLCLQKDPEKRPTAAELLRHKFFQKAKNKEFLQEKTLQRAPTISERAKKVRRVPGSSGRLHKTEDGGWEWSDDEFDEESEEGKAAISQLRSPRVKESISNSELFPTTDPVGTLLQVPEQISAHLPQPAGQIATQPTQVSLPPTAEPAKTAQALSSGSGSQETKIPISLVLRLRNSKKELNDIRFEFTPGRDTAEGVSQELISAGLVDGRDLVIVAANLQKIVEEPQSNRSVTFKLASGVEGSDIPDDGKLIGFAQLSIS

[2] = biological target: MST4 (recombinant) (human) (UniProt Q9P289); assay: as above
[3] = biological target: T2, Flag-tagged MST2 (wildtype, in cells) (human) (UniProt Q13188); assay: co-IP; HEK293FT cells transfected with tagged plasmids, lysed 24 h later in RIPA buffer; immunoprecipitation with indicated antibodies and Protein A/G beads; immunoblot
T2 sequence: T1 sequence

[4] = biological target: T3, Flag-tagged MST2 K56R (in cells) (human) (UniProt Q13188); assay: as above
T3 sequence: T1 sequence with K56R

[5] = biological target: T4, Flag-tagged STRN3 (wildtype, in cells) (human) (UniProt Q13033); assay: as above
T4 sequence: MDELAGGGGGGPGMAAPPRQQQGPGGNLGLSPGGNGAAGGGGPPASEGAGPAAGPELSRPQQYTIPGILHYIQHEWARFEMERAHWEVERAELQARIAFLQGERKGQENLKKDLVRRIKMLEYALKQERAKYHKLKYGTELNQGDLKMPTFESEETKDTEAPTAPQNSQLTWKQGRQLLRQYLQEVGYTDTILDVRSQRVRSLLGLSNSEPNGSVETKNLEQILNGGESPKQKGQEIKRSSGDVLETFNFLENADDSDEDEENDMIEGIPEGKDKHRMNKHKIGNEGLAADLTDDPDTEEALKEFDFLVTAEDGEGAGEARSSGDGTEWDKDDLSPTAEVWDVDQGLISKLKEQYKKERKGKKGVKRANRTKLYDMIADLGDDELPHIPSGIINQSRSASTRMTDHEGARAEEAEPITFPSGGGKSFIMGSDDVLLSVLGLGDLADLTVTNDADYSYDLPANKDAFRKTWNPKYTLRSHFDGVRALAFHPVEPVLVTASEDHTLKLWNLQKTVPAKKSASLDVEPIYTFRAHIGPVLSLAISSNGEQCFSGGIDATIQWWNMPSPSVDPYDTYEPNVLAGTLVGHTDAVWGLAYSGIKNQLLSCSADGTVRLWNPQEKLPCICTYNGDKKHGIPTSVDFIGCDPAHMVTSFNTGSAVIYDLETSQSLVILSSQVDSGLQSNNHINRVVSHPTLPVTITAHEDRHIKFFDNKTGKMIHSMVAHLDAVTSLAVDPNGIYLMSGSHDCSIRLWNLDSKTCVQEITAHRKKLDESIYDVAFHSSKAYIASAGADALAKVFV

[6] = biological target: T5, Flag-tagged STRN3 Δ64–145 (human) (UniProt Q13033); assay: as above
T5 sequence: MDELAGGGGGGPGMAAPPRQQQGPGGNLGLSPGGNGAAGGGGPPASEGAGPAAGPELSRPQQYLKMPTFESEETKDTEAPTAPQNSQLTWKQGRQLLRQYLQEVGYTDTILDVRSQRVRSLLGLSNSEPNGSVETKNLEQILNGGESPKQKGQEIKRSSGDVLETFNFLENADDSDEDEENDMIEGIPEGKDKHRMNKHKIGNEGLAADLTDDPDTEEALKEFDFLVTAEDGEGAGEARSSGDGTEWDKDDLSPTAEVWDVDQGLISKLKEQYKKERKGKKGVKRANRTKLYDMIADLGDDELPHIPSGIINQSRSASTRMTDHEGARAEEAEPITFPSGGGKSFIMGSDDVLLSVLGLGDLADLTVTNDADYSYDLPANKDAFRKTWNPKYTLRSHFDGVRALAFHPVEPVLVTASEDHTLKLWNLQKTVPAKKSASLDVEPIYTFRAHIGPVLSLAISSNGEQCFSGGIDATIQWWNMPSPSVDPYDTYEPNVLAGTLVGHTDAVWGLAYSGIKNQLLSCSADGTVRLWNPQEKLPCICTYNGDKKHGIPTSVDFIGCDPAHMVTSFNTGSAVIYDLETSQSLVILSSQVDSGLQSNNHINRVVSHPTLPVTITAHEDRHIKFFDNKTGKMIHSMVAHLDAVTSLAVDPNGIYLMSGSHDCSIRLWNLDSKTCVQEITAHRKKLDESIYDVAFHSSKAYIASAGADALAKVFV

[7] = biological target: T6, STRN3 (endogenous) (human (endogenous in HEK293FT)) (UniProt Q13033); assay: co-IP; endogenous proteins, HEK293FT cells at high (80%) and low (10%) cell density; immunoprecipitation of STRN3 or MST1; immunoblot
T6 sequence: T4 sequence

[8] = biological target: STRIP1 C-terminal tail region containing residues 721–837 (UniProt Q5VSL9); assay: pull-down; pulldown with purified recombinant proteins shown in supplementary figures; whether GST or MBP and who carried the tag not told; both purified
[9] = biological target: T7, STRN3 coiled-coil domain (CC, amino acid residues 64–145) (human) (UniProt Q13033); assay: as above
T7 sequence: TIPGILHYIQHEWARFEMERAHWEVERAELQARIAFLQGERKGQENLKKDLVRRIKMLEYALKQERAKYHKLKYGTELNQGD

[10] = biological target: T8, MST1 (endogenous) (human (endogenous in HEK293FT)) (UniProt Q13043); assay: co-IP; endogenous proteins, HEK293FT cells at high (80%) and low (10%) cell density; immunoprecipitation of STRN3 or MST1; immunoblot
T8 sequence: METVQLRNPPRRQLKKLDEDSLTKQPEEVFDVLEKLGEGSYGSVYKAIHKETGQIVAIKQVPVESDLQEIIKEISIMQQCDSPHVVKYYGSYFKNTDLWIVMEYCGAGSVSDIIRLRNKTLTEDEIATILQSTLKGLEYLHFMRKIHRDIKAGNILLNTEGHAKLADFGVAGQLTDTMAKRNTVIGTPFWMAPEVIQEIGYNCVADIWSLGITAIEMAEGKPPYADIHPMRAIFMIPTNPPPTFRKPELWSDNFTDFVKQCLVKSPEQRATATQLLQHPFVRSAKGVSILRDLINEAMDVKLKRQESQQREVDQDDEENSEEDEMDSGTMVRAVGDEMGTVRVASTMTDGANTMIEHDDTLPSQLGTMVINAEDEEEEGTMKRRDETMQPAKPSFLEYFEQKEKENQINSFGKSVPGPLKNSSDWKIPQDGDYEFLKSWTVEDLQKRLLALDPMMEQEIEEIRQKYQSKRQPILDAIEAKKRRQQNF

GST-tagged MST2 (human) = biological target: T9, GST-tagged MST2 (human) (UniProt Q13188); assay: pull-down; pulldown with the kinase (MST2 or MST4) first dephosphorylated with lambda-phosphatase (λPPase); both purified
T9 sequence: T1 sequence

[11] = biological target: T10, MBP-tagged FGFR1OP2 (human) (UniProt Q9NVK5); assay: pull-down; MBP pulldown: MBP-tagged protein, partner and amylose resin mixed at 4 °C for 1 h in 20 mM HEPES (pH 7.5), 100 mM NaCl; eluted with 20 mM maltose; SDS-PAGE, Coomassie staining; both purified
T10 sequence: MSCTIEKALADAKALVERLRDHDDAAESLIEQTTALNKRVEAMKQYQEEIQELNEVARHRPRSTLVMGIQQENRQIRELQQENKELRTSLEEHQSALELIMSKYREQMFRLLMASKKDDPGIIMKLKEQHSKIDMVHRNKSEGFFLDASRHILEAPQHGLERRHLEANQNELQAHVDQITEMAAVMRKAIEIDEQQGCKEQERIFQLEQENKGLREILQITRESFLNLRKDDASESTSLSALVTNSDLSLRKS

MBP-tagged SIKE1 (human) = biological target: T11, MBP-tagged SIKE1 (human) (UniProt Q9BRV8); assay: as above
T11 sequence: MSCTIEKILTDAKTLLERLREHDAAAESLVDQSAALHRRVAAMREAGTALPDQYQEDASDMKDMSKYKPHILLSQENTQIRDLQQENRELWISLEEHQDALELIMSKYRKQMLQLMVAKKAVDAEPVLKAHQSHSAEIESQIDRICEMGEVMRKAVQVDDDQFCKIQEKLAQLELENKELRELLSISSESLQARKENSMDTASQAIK

[12] = biological target: T12, MST2 K56R (recombinant) (human) (UniProt Q13188); assay: as above
T12 sequence: T1 sequence with K56R

[13] = biological target: OSR1 (recombinant) (human) (UniProt O95747); assay: pull-down; GST pulldown: GST-tagged protein, partner and glutathione Sepharose mixed at 4 °C for 1 h in 20 mM HEPES (pH 7.5), 100 mM NaCl; eluted with 20 mM reduced glutathione; SDS-PAGE, Coomassie staining; both purified

- binding [1]: no binding
- binding [2]: no binding
Substance: Flag-STRIP1 N-terminal domain (NTD, residues 1–420), cell-free (from UniProt Q5VSL9 1-420) (domain or fragment)

- binding [3]: binds
- binding [4]: no binding
- binding [5]: binds
- binding [6]: no binding
Substance: HA-tagged STRIP1 (wildtype, in cells) (from UniProt Q5VSL9 1-837)

- binding [5]: no binding
Substance: HA-tagged STRIP1 Δ796–837 (from UniProt Q5VSL9 1-837)

- binding [8]: no binding
Substance: MST4 (recombinant) (from UniProt Q9P289 1-416) (enzyme)

- binding [11]: no binding
- binding (MBP-tagged SIKE1 (human)): no binding
- binding [12]: no binding
- binding [13]: no binding
Substance: STRIP1 (full-length, His-tagged, insect cells) (from UniProt Q5VSL9 1-837)
- binding (GST-tagged MST2 (human)): no binding (condition: MST2 treated with λPPase)

The next lines start with the substance.

Substance: Flag-STRIP1 C-terminal region (residues 421–837), cell-free (from UniProt Q5VSL9 421-837) (domain or fragment)
- binding [1]: binds
- binding [2]: binds

Substance: Flag-STRIP1 residues 421–744 (kinase-binding domain, KBD), cell-free (from UniProt Q5VSL9 421-744) (domain or fragment)
- binding [1]: binds

Substance: HA-tagged STRIP1 Δ421–744 (from UniProt Q5VSL9 1-837)
- binding [3]: no binding

Substance: MST4 (endogenous) (from UniProt Q9P289 1-416) (enzyme)
- binding [7]: binds

Substance: N-terminal domain of STRIP1 (residues 1–350) (from UniProt Q5VSL9 1-350) (domain or fragment)
- binding [9]: no binding

Substance: N-terminal domain of STRIP1 (residues 1–420), recombinant (from UniProt Q5VSL9 1-420) (domain or fragment)
- binding [9]: no binding

Substance: STRIP1 (endogenous) (from UniProt Q5VSL9 1-837)
- binding [10]: binds
- binding [7]: binds

From paper PMC6323126
